{"source": "the supplement of paper PMC10126150", "note": "Sequences with one replicate were seen in a single cluster, so their values are uncertain.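 Note: ATP exposure 15 min at 22 °C before imaging.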", "data": [{"test_system": "ATP", "assay": "switch fluorescence ratio, 500 uM ATP over buffer (Cy3 cluster intensity, sum of 5 cycles each) (fold (ratio)); higher = stronger signal-on switching upon ATP binding; sequences stand for … in TCGTCGGCAGCGTCAGATGTGTATAAGAGACAGTTTTTTTTTTTTTTTTTTTTTTTTT…TC", "details": "aptamer strand: ATP DNA aptamer (quencher-CACCTGGGGGAGTATTGCGGAGGAAGG + anchor), 100 nM annealed; ATP concentration: 500 uM; one replicate", "outline": "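Five buffer/ATP imaging cycles were run on Cy3-labelled switching-strand clusters on a modified Illumina MiSeq flow-cell, with NaOH stripping and re-annealing between cycles. In each cycle, clusters annealed to 100 nM quencher-labelled ATP aptamer were imaged in selection buffer, then after 15 min with 500 uM ATP at 22 °C. Per cluster, the fluorescence ratio is summed target-cycle over summed buffer-cycle Cy3 intensity, averaged per switch-domain sequence. Only clusters within 100-1000 RFU were kept.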", "values": [{"sequence": "GCTACATCAC", "switch fluorescence ratio": 1.33}, {"sequence": "GCTACCTGAG", "switch fluorescence ratio": 1.35}, {"sequence": "GCTACCTGCG", "switch fluorescence ratio": 1.07}, {"sequence": "GCTACTCGTT", "switch fluorescence ratio": 1.05}, {"sequence": "GCTACTTGTT", "switch fluorescence ratio": 1.02}, {"sequence": "GCTAGACCTA", "switch fluorescence ratio": 1.02}, {"sequence": "GCTAGCATTT", "switch fluorescence ratio": 1.03}, {"sequence": "GCTAGCTAAA", "switch fluorescence ratio": 0.949}, {"sequence": "GCTAGGAGGT", "switch fluorescence ratio": 0.998}, {"sequence": "GCTAGGGATA", "switch fluorescence ratio": 1.02}, {"sequence": "GCTAGTAGCG", "switch fluorescence ratio": 0.963}, {"sequence": "GCTAGTCAAG", "switch fluorescence ratio": 0.984}, {"sequence": "GCTAGTGGAT", "switch fluorescence ratio": 0.994}, {"sequence": "GCTAGTTGTC", "switch fluorescence ratio": 0.861}, {"sequence": "GCTATCAGCA", "switch fluorescence ratio": 1}, {"sequence": "GCTATCTCGT", "switch fluorescence ratio": 0.963}, {"sequence": "GCTATGAGGA", "switch fluorescence ratio": 1.02}, {"sequence": "GCTATGGTCA", "switch fluorescence ratio": 1.03}, {"sequence": "GCTCAACTTT", "switch fluorescence ratio": 1.04}, {"sequence": "GCTCACTGAC", "switch fluorescence ratio": 1.77}, {"sequence": "GCTCACTTCT", "switch fluorescence ratio": 0.99}, {"sequence": "GCTCATACGT", "switch fluorescence ratio": 1.06}, {"sequence": "GCTCATGTGG", "switch fluorescence ratio": 0.998}, {"sequence": "GCTCCAGTAG", "switch fluorescence ratio": 1.23}, {"sequence": "GCTCCATACA", "switch fluorescence ratio": 1.09}, {"sequence": "GCTCCATG", "switch fluorescence ratio": 1.07}, {"sequence": "GCTCCCGGCC", "switch fluorescence ratio": 1.06}, {"sequence": "GCTCCGTCTG", "switch fluorescence ratio": 1.41}, {"sequence": "GCTCCTAAGC", "switch fluorescence ratio": 1.01}, {"sequence": "GCTCCTCTT", "switch fluorescence ratio": 1.03}, {"sequence": "GCTCCTGAGT", "switch fluorescence ratio": 1}, {"sequence": "GCTCCTTTTT", "switch fluorescence ratio": 0.986}, {"sequence": "GCTCGACTTG", "switch fluorescence ratio": 1.04}, {"sequence": "GCTCGAGCTC", "switch fluorescence ratio": 1.04}, {"sequence": "GCTCGCGAGG", "switch fluorescence ratio": 1.01}, {"sequence": "GCTCGCTGGG", "switch fluorescence ratio": 0.999}, {"sequence": "GCTCGGGGCC", "switch fluorescence ratio": 1.02}, {"sequence": "GCTCTAAGTC", "switch fluorescence ratio": 1.02}, {"sequence": "GCTCTACCAT", "switch fluorescence ratio": 1.01}, {"sequence": "GCTCTAGCCT", "switch fluorescence ratio": 1.01}, {"sequence": "GCTCTCCTCG", "switch fluorescence ratio": 1.13}, {"sequence": "GCTCTGCCAA", "switch fluorescence ratio": 1.79}, {"sequence": "GCTCTGGCGA", "switch fluorescence ratio": 1.3}, {"sequence": "GCTCTTGACT", "switch fluorescence ratio": 1.02}, {"sequence": "GCTCTTTTTC", "switch fluorescence ratio": 1.01}, {"sequence": "GCTGAAACGT", "switch fluorescence ratio": 1.08}, {"sequence": "GCTGAAATTG", "switch fluorescence ratio": 1.03}, {"sequence": "GCTGAACGGG", "switch fluorescence ratio": 0.984}, {"sequence": "GCTGAGCGCG", "switch fluorescence ratio": 0.982}, {"sequence": "GCTGAGCTCG", "switch fluorescence ratio": 0.99}, {"sequence": "GCTGATATAT", "switch fluorescence ratio": 1}, {"sequence": "GCTGCACAAA", "switch fluorescence ratio": 0.984}, {"sequence": "GCTGCGGCAA", "switch fluorescence ratio": 1.08}, {"sequence": "GCTGCGGTTG", "switch fluorescence ratio": 0.974}, {"sequence": "GCTGGATTGT", "switch fluorescence ratio": 1.06}, {"sequence": "GCTGGCGATG", "switch fluorescence ratio": 0.979}, {"sequence": "GCTGGGGGTC", "switch fluorescence ratio": 1.01}, {"sequence": "GCTGGGTGAG", "switch fluorescence ratio": 1.01}, {"sequence": "GCTGGTAGTA", "switch fluorescence ratio": 0.981}, {"sequence": "GCTGGTCTAT", "switch fluorescence ratio": 1.01}, {"sequence": "GCTGGTGCTA", "switch fluorescence ratio": 0.953}, {"sequence": "GCTGGTTCGC", "switch fluorescence ratio": 0.996}, {"sequence": "GCTGGTTGTG", "switch fluorescence ratio": 1}, {"sequence": "GCTGTAGACA", "switch fluorescence ratio": 0.987}, {"sequence": "GCTGTCCATA", "switch fluorescence ratio": 1.02}, {"sequence": "GCTGTCTGCT", "switch fluorescence ratio": 1}, {"sequence": "GCTGTGAGAG", "switch fluorescence ratio": 1.02}, {"sequence": "GCTGTTAGTT", "switch fluorescence ratio": 1.03}, {"sequence": "GCTGTTTTCC", "switch fluorescence ratio": 0.913}, {"sequence": "GCTTAACCGG", "switch fluorescence ratio": 0.966}, {"sequence": "GCTTAAGCGT", "switch fluorescence ratio": 0.996}, {"sequence": "GCTTAAGCTC", "switch fluorescence ratio": 1}, {"sequence": "GCTTAATA", "switch fluorescence ratio": 1.05}, {"sequence": "GCTTAATGC", "switch fluorescence ratio": 1.04}, {"sequence": "GCTTACTGGG", "switch fluorescence ratio": 1.04}, {"sequence": "GCTTAGAGTT", "switch fluorescence ratio": 1.02}, {"sequence": "GCTTAGGATG", "switch fluorescence ratio": 1.04}, {"sequence": "GCTTATCGGA", "switch fluorescence ratio": 0.978}, {"sequence": "GCTTATTCCG", "switch fluorescence ratio": 1.09}, {"sequence": "GCTTATTCTG", "switch fluorescence ratio": 0.971}, {"sequence": "GCTTCCAAGA", "switch fluorescence ratio": 1.17}, {"sequence": "GCTTCCCGGG", "switch fluorescence ratio": 1.17}, {"sequence": "GCTTCGATTT", "switch fluorescence ratio": 1}, {"sequence": "GCTTCGTCAA", "switch fluorescence ratio": 2.02}, {"sequence": "GCTTCTCACT", "switch fluorescence ratio": 1.02}, {"sequence": "GCTTGATCTG", "switch fluorescence ratio": 1.01}, {"sequence": "GCTTGGCGAT", "switch fluorescence ratio": 1.07}, {"sequence": "GCTTGGGAAG", "switch fluorescence ratio": 0.975}, {"sequence": "GCTTGGGTG", "switch fluorescence ratio": 1.12}, {"sequence": "GCTTGTGAGT", "switch fluorescence ratio": 0.993}, {"sequence": "GCTTGTGGGG", "switch fluorescence ratio": 0.974}, {"sequence": "GCTTTAACTA", "switch fluorescence ratio": 0.998}, {"sequence": "GCTTTACTTA", "switch fluorescence ratio": 1.03}, {"sequence": "GCTTTAGGC", "switch fluorescence ratio": 0.977}, {"sequence": "GCTTTAGGCG", "switch fluorescence ratio": 0.977}, {"sequence": "GCTTTAGTAG", "switch fluorescence ratio": 1.07}, {"sequence": "GCTTTAGTCG", "switch fluorescence ratio": 1.01}, {"sequence": "GCTTTCGTCG", "switch fluorescence ratio": 1.03}, {"sequence": "GCTTTGTG", "switch fluorescence ratio": 0.993}, {"sequence": "GCTTTTCATA", "switch fluorescence ratio": 0.995}, {"sequence": "GCTTTTCCCG", "switch fluorescence ratio": 1.04}, {"sequence": "GCTTTTGCTC", "switch fluorescence ratio": 0.981}, {"sequence": "GCTTTTTACG", "switch fluorescence ratio": 0.993}, {"sequence": "GGAAAA", "switch fluorescence ratio": 0.972}, {"sequence": "GGAAAAAATC", "switch fluorescence ratio": 1.03}, {"sequence": "GGAAAAGCTG", "switch fluorescence ratio": 1.02}, {"sequence": "GGAAAAGTAA", "switch fluorescence ratio": 1}, {"sequence": "GGAAACCCAT", "switch fluorescence ratio": 1.01}, {"sequence": "GGAAATATAA", "switch fluorescence ratio": 1.01}, {"sequence": "GGAAATGATG", "switch fluorescence ratio": 0.949}, {"sequence": "GGAAATGGCC", "switch fluorescence ratio": 0.988}, {"sequence": "GGAACAAAGT", "switch fluorescence ratio": 0.991}, {"sequence": "GGAACAGCAA", "switch fluorescence ratio": 1.83}, {"sequence": "GGAACCCCCA", "switch fluorescence ratio": 1.23}, {"sequence": "GGAACCGGCG", "switch fluorescence ratio": 0.993}, {"sequence": "GGAACCTTAT", "switch fluorescence ratio": 1.11}, {"sequence": "GGAACGATTG", "switch fluorescence ratio": 0.972}, {"sequence": "GGAACGTCCG", "switch fluorescence ratio": 0.993}, {"sequence": "GGAACTGAAT", "switch fluorescence ratio": 0.996}, {"sequence": "GGAACTGGAC", "switch fluorescence ratio": 1.09}, {"sequence": "GGAACTGTGG", "switch fluorescence ratio": 0.971}, {"sequence": "GGAACTTGAG", "switch fluorescence ratio": 1.02}, {"sequence": "GGAACTTGGA", "switch fluorescence ratio": 0.982}, {"sequence": "GGAAGAAAAG", "switch fluorescence ratio": 1.02}, {"sequence": "GGAAGACACT", "switch fluorescence ratio": 0.989}, {"sequence": "GGAAGCTAGA", "switch fluorescence ratio": 0.982}, {"sequence": "GGAAGCTGCG", "switch fluorescence ratio": 1.13}, {"sequence": "GGAAGGCTGT", "switch fluorescence ratio": 1.04}, {"sequence": "GGAAGGGA", "switch fluorescence ratio": 1.04}, {"sequence": "GGAAGGGTCT", "switch fluorescence ratio": 1.1}, {"sequence": "GGAAGTCTGC", "switch fluorescence ratio": 0.962}, {"sequence": "GGAATAAGTA", "switch fluorescence ratio": 1.02}, {"sequence": "GGAATAGCGC", "switch fluorescence ratio": 0.961}, {"sequence": "GGAATATATG", "switch fluorescence ratio": 1.02}, {"sequence": "GGAATATTTA", "switch fluorescence ratio": 0.985}, {"sequence": "GGAATCACGA", "switch fluorescence ratio": 1.02}, {"sequence": "GGAATCCTCT", "switch fluorescence ratio": 1.02}, {"sequence": "GGAATCGTCA", "switch fluorescence ratio": 0.984}, {"sequence": "GGAATCGTCT", "switch fluorescence ratio": 1.14}, {"sequence": "GGAATTCAAT", "switch fluorescence ratio": 1.02}, {"sequence": "GGAATTCTAG", "switch fluorescence ratio": 0.959}, {"sequence": "GGAATTGAAC", "switch fluorescence ratio": 1.01}, {"sequence": "GGAATTGCTT", "switch fluorescence ratio": 0.996}, {"sequence": "GGAATTTCG", "switch fluorescence ratio": 0.98}, {"sequence": "GGACACGTTC", "switch fluorescence ratio": 1.06}, {"sequence": "GGACAGGAGA", "switch fluorescence ratio": 1.02}, {"sequence": "GGACAGTATC", "switch fluorescence ratio": 1.04}, {"sequence": "GGACCATCAG", "switch fluorescence ratio": 0.951}, {"sequence": "GGACCCTAAT", "switch fluorescence ratio": 0.996}, {"sequence": "GGACCGCGGT", "switch fluorescence ratio": 0.994}, {"sequence": "GGACCTATAT", "switch fluorescence ratio": 1}, {"sequence": "GGACCTGTAG", "switch fluorescence ratio": 0.981}, {"sequence": "GGACCTTGTT", "switch fluorescence ratio": 1.03}]}]}
